Values joined by “and” are separate entries in the source; they are usually repeats but may differ in a detail not shown here. Equal entries are not always repeated. Among all 130,000 compounds or so, about 550 (0.42%) were called active. The shares of active, inactive and inconclusive entries below differ from those in the screen. Calls follow the shape of the dose curve; as a rule, active = well fitted inhibition curve with a large enough effect; inconclusive = small, poorly fitted or top-dose-only effect, or effect the other way; inactive = flat fitted curve, though single readings scatter. Potencies of inconclusive entries are left out as doubtful fits.
Experiment: qHTS Assay for Inhibitors of the ERK Signaling Pathway using a Homogeneous Screening Assay; Stimulation with EGF; also: nearly all actives have a fitted effect of over 55% in size
Conditions: HEK293-V1b, EGF-stimulated phospho-ERK AlphaScreen
How it was run: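 Homogeneous cell-based phospho-ERK assay: HEK293/V1b cells in 1% FBS, compound 30 min then EGF 5 min, AlphaScreen luminescence. Activity normalized between DMSO and 25 nM EGF controls; AC50 from Hill modelling.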
Potency is read from the fitted curve at half-maximal effect; tags tell the direction and shape of the fitted curve.

Row | Structure (SMILES) | Potency
1 | O=C(Nc1ccc(NC(=O)c2cccs2)cc1)c1ccc2c(c1)OCO2 | inconclusive [inhibitor, full curve, poor fit]
2 | Cc1cc2cc(CNC(=S)Nc3ccc(OC(F)(F)F)cc3)ccc2n1C | inconclusive [inhibitor, single point]
3 | CCCn1c(-c2ccc(F)cc2)nc2c(NCCN(CC)CC)nc(C)nc21 | inactive
4 | CC(C)[C@@H]1CC[C@@H](C)C[C@H]1OC(=O)C[n+]1cc(-c2ccc(Cl)cc2)n2c1CCCCC2 | inactive
5 | Cc1cc2nc(-c3ccc(SCc4ccccn4)nc3)[nH]c2cc1C | inconclusive [inhibitor, single point]
6 | Cc1ccc(S(=O)(=O)N2CCCCC2)cc1NC(=O)c1ccccn1 | inconclusive [inhibitor, single point]
7 | CCOc1ccc(NC(=O)c2sccc2-n2cccc2)cc1 | inconclusive [inhibitor, single point]
8 | CC(C)CN(C(=O)COC(=O)c1c(Cl)ccc(Cl)c1Cl)C1CCS(=O)(=O)C1 (configuration not stated) | inactive
9 | CCN1/C(=C/c2ccc3cc(C)ccc3[n+]2CC)Sc2ccccc21 | inconclusive [inhibitor, partial curve]
10 | Cc1cc(=O)[nH]c(-c2ccc(Cl)cc2)n1 | inconclusive [activator, single point]
11 | CCN(CC)S(=O)(=O)c1cccc(NC(=O)c2ccc(SC)cc2OC)c1 | inconclusive [inhibitor, partial curve]
12 | Cc1ccccc1N1C(=O)c2cc(S(N)(=O)=O)c(Cl)cc2N[C@H]1C | inactive
13 | CC1=C/C(=C\C=C(C#N)C#N)N(C)c2ccccc21 | inconclusive [inhibitor, single point]
14 | Cc1nc2ncccn2c1-c1csc(Nc2ccccc2)n1 | inconclusive [inhibitor, single point]
15 | CCOC(=O)c1sc(NN=C(C(=O)OC)C(=O)OC)c(C(=O)OCC)c1C | inconclusive [inhibitor, partial curve]
16 | COC(=O)CC1C(C)(C)C(O)C2CC3=C4C=C(OC)OC(c5ccoc5)[C@]4(C)CCC3[C@@]1(C)C2=O (some centres not stated) | inactive
17 | c1ccc2c(c1)Oc1cccc3cccc-2c13 | inconclusive [activator, partial curve]
18 | COC(=O)c1sccc1NC(=O)COc1ccc(C)cc1 | inconclusive [inhibitor, single point]
19 | Cc1ccc(NC(=O)CNc2ccc(Cl)c(Cl)c2)cc1S(=O)(=O)N(C)C | inconclusive [inhibitor, single point]
20 | NC1C(O)OC(CO)[C@@H](O)[C@@H]1O[C@H]1O[C@@H](C(=O)O)C(O)C(O)C1O (some centres not stated) | inactive
21 | CN(C)c1ccnc2c[cH-]cc12.[Fe].c1ccc(-[c-]2[c-](-c3ccccc3)[c-](-c3ccccc3)[c-](-c3ccccc3)[c-]2-c2ccccc2)cc1 (configuration not stated) | active: 2.82 µM and active: 3.16 µM
22 | Cc1cc(=O)oc2c(C(=O)c3ccccc3)c(OCC(N)=O)ccc12 | inactive
23 | CN1C(=S)SC(C)(C)C1N(O)C(=O)Nc1ccc(Cl)cc1 (configuration not stated) | inconclusive [inhibitor, partial curve]

Row | Structure (SMILES) | Potency
24 | Fc1ccc(NC(=S)N/N=C/c2ccc(F)c(F)c2)cc1 | inconclusive [inhibitor, single point]
25 | CCCCOc1ccc(CONS(=O)(=O)c2ccc(NC(C)=O)cc2)cc1Cl | inconclusive [inhibitor, single point]
26 | CN(C)S(=O)(=O)c1ccc(NC(=O)CCNC(=O)c2ccc([N+](=O)[O-])cc2)cc1 | inconclusive [activator, full curve, poor fit]
27 | COc1ccc(CCNc2nc(-c3cccc(NC(C)=O)c3)cs2)cc1OC | inconclusive [inhibitor, partial curve]
28 | O=S(=O)(Nc1ncnc2sc3c(c12)CCC3)c1cc(F)ccc1F | inactive
29 | CSc1ncc(-c2ccc(Cl)cc2)[nH]1 | inconclusive [activator, partial curve]
30 | CC(=O)[C@@H]1[C@H]2[C@H](C(=O)[C@H]3OC[C@@H]2O3)[C@H]2C=Cc3ccccc3N21 | inactive
31 | O=C(C/C=N\OCc1ccc(Cl)cc1Cl)Nc1ccccc1 | inconclusive [inhibitor, single point]
32 | O=C1CC(=C2c3ccccc3-c3ccccc32)C(=O)N1CCCCN1CCN(c2ccccc2)CC1 | inconclusive [inhibitor, partial curve]
33 | O=C1N/C(=C/c2ccc(N3CCOCC3)o2)C(=O)N1c1ccccc1 | inconclusive [inhibitor, single point]
34 | N#CC1=C(N)NC(SCc2ccccc2)=C(C#N)C12CCCC2 | inconclusive [inhibitor, single point]
35 | COc1ccc2c(c1)c(/C=N/Nc1nc3ccccc3[nH]1)c(C)n2C | inconclusive [inhibitor, single point]
36 | CN(C)c1ncc2nc(-c3ccccc3)c(=O)n(C3CC3)c2n1 | inconclusive [activator, partial curve]
37 | Cc1ccc(-c2nnc(N3CCN(C(=O)c4cccs4)CC3)c3ccccc23)cc1 | inconclusive [inhibitor, single point]
38 | COc1ccccc1N(C)S(=O)(=O)c1ccc(C(=O)OCC(=O)NCC(F)(F)F)cc1 | inconclusive [inhibitor, single point]
39 | CC#C[C@]1(O)CC[C@H]2C3CCC4=CC(=O)CCC4=C3[C@@H](c3ccc(N(C)C)cc3)C[C@@]21C (some centres not stated) | inconclusive [inhibitor, single point]
40 | COc1ccc2c(c1OC)C(Cc1ccccc1)N1CCc3cc4c(cc3C1C2)OCO4 (configuration not stated) | inactive
41 | O=C(Nc1nc(-c2ccccc2)cs1)Nc1ccc(F)cc1F | inconclusive [inhibitor, single point]
42 | O=[N+]([O-])c1cc(CN2CCN(c3ccccc3)CC2)c(O)c2ncccc12 | inconclusive [inhibitor, partial curve]
43 | Clc1cccc(OCCN2CCN(CCOc3cccc(Cl)c3)CC2)c1 | inconclusive [inhibitor, single point]
44 | S=c1nc[nH]c2c1sc1nc(N3CCOCC3)c3c(c12)CCCC3 | inactive
45 | Cc1cccc2cc(/C=N/NC(=O)[C@H]3C[C@@H]3c3ccccc3)c(Cl)nc12 | inactive
46 | COc1ccccc1[C@@H]1C(c2cccc(Cl)c2)=NN(c2ccccc2)[C@H]1C(=O)N1CCOC1=O | inconclusive [activator, partial curve]

Row | Structure (SMILES) | Potency
47 | O=C(Nc1ccc(S(=O)(=O)N2CCCCC2c2cccnc2)cc1)c1c(F)cccc1F (configuration not stated) | inconclusive [inhibitor, single point]
48 | Cc1ccc(C)c(-c2csc(N/N=C/c3ccco3)n2)c1 | inconclusive [inhibitor, partial curve]
49 | Cn1cccc1C(=O)N1CCC2(CC1)CN(C(c1ccccc1)c1ccccc1)C2 | inconclusive [inhibitor, single point]
50 | O=C(COc1ccccc1[N+](=O)[O-])N/N=C/c1ccc(O)c([N+](=O)[O-])c1 | inactive
51 | O=C1/C(=C/c2ccco2)SC(=S)N1C1CCS(=O)(=O)C1 (configuration not stated) | inactive
52 | C/C(=N\Nc1nc2ccccc2[nH]1)c1ccc2c(c1)OCO2 | inconclusive [inhibitor, single point]
53 | O=P1(O)Oc2c(c(-c3ccccc3)cc3ccc4ccccc4c23)-c2c(-c3ccccc3)cc3ccc4ccccc4c3c2O1 | inactive
54 | N#CCCn1c(=O)cnc2cnc(Nc3ccccc3)nc21 | inactive
55 | CC(=O)N(CCC(Cc1ccccc1)c1ccco1)Cc1ccco1 (configuration not stated) | inconclusive [inhibitor, single point]
56 | N#Cc1cccc(NC(=O)N2CCC3(CC2)CCN(C(=O)c2cccc(F)c2)CC3)c1 | inactive
57 | CCSc1nnc(-c2ccccc2SC)o1 | inactive
58 | Cn1cc(C(=O)c2ccc(Cl)cc2Cl)cc1C(=O)N/N=C(\N)COc1ccc(Cl)cc1 | inconclusive [inhibitor, partial curve, poor fit]
59 | CC1(C)CC(O)C(C(O)c2cccc([N+](=O)[O-])c2)C(C)(C)N1 (configuration not stated) | inactive
60 | C[N+]1=C(/C=C/Nc2ccccc2Cl)C(C)(C)c2ccccc21 | inactive
61 | Cc1c(Cl)cnc(NC(=O)CSc2nncs2)c1Cl | inconclusive [activator, partial curve]
62 | CCS(=O)(=O)N1Cc2ccccc2CC1C(=O)Nc1nnc(C2CC2)s1 (configuration not stated) | inconclusive [inhibitor, single point]
63 | CCOC(=O)C1(CCOc2ccccc2)CCN(Cc2cccc(-n3cccn3)c2)CC1 | inconclusive [inhibitor, partial curve]
64 | COc1cc(C(=O)Nc2nnc(C)s2)c([N+](=O)[O-])cc1OC | inactive
65 | COc1cccc(CNC(=O)CN2C(=O)CSc3ccc(S(=O)(=O)N4CCCC4)cc32)c1 | inconclusive [inhibitor, partial curve, poor fit]
66 | CCOc1ccc(C2CC(c3c(O)c4ccccc4oc3=O)=NN2c2ccccc2)cc1OC (configuration not stated) | inconclusive [activator, partial curve]
67 | Cc1ccc(-c2cc(=O)c3cc(C)ccc3[nH]2)cc1 | inconclusive [inhibitor, single point]
